Measured values from article PMC11995724, “Antibiotic target discovery by integrated phenotypic and activity-based profiling of electrophilic fragments” (Cell chemical biology, 2025).
About 110 (3.4%) of roughly 3,200 compounds showed an effect of 50% or more. This is one part of the list.

test system: T1, V. cholerae SAD30; parameters: species or system S. aureus MSSA476 (TSB) or V. cholerae SAD30 (LB); 384-well bacterial growth screen at 25 uM, OD600 relative to DMSO control; details: relative growth, OD600, LB; 25 µM; inhibitor
T1 construct: SAD30

First: Cc1cc(C(=O)CCl)c(C)n1C1CCS(=O)(=O)C1 (stereo not shown) [10-B12, 3-[3-(2-chloroacetyl)-2,5-dimethyl-1H-pyrrol-1-yl]-1lambda6-thiolane-1,1-dione]
Second: Cc1cc(C(=O)CCl)c(C)n1-c1ccc(OC(F)F)c(Cl)c1 [10-K04, 2-chloro-1-{1-[3-chloro-4-(difluoromethoxy)phenyl]-2,5-dimethyl-1H-pyrrol-3-yl}ethan-1-one]
The “% of control remaining” value of the first is higher: 102.085% for the first, 96.6297% for the second.

Going from CC(C)CC(=O)Nc1ccc(C(=O)CCl)cc1 [10-N06, N-[4-(2-chloroacetyl)phenyl]-3-methylbutanamide] to COc1ccccc1NC(=O)c1ccc(NC(=O)C(C)Cl)cc1 (stereo not shown) [5-C17, 4-(2-chloropropanamido)-N-(2-methoxyphenyl)benzamide], the “% of control remaining” value rises from 76.8362% to 85.5732%.

Compared with COc1cccc(NC(=O)C(C#N)=Cc2ccc(C)cc2C)c1 [8-C16, 2-cyano-3-(2,4-dimethylphenyl)-N-(3-methoxyphenyl)prop-2-enamide], N#CC(=Cc1ccc(F)c([N+](=O)[O-])c1)C(=O)Nc1ccc(F)cc1 [8-D04, 2-cyano-3-(4-fluoro-3-nitrophenyl)-N-(4-fluorophenyl)prop-2-enamide] is higher in “% of control remaining” value: 74.4392% for the first, 87.0836% for the second.

First: N#Cc1cccc2c1CC[C@H]2NC(=O)CCl [7-D06, 2-chloro-N-[(1R)-4-cyano-2,3-dihydro-1H-inden-1-yl]acetamide]
Second: Cc1c(Cl)cccc1NC(=O)CNC(=O)CCl [5-N20, 2-chloro-N-{[(3-chloro-2-methylphenyl)carbamoyl]methyl}acetamide]
The “% of control remaining” value of the first is lower: 88.9476% for the first, 102.049% for the second.

Going from N#CC(=Cc1ccsc1)C(=O)Nc1nccs1 [9-C17, 2-cyano-N-(1,3-thiazol-2-yl)-3-(thiophen-3-yl)prop-2-enamide] to CNC(=O)C(C#N)=Cc1cccc(-c2ccncc2)c1 [9-L14, 2-cyano-N-methyl-3-[3-(pyridin-4-yl)phenyl]prop-2-enamide], the “% of control remaining” value rises from 85.3161% to 88.1713%.

First: C=CC(=O)NCc1n[nH]c(=O)n1C1CC1 [3-N08, N-[(4-cyclopropyl-5-oxo-4,5-dihydro-1H-1,2,4-triazol-3-yl)methyl]prop-2-enamide]
Second: C=CC(=O)NCc1ccnc(OC2CCOCC2)c1 [2-B17, N-{[2-(oxan-4-yloxy)pyridin-4-yl]methyl}prop-2-enamide]
The “% of control remaining” value of the first is higher: 98.265% for the first, 92.203% for the second.

First: C=CC(=O)NC1(C(N)=O)CCCC1C (stereo not shown) [3-B09, 2-methyl-1-(prop-2-enamido)cyclopentane-1-carboxamide]
Second: C=CC(=O)NC(C1CCC1)C1CCOC1 (stereo not shown) [1-O22, N-[cyclobutyl(oxolan-3-yl)methyl]prop-2-enamide]
The “% of control remaining” value of the first is higher: 108.146% for the first, 98.0568% for the second.

Compared with CC(=O)N(Cc1ncc(C(C)C)o1)C1CCN(C(=O)C(C)Cl)C1 (stereo not shown) [6-J07, N-[1-(2-chloropropanoyl)pyrrolidin-3-yl]-N-{[5-(propan-2-yl)-1,3-oxazol-2-yl]methyl}acetamide], CC(Cl)C(=O)N1CC(OCc2cccc3ccccc23)C1 (stereo not shown) [7-I03, 2-chloro-1-{3-[(naphthalen-1-yl)methoxy]azetidin-1-yl}propan-1-one] is lower in “% of control remaining” value: 90.0938% for the first, 85.5113% for the second.

First: COc1ccc(C2=NN(C(=O)CCl)C(c3cccc(C)c3)C2)cc1 (stereo not shown) [4-G20, 2-chloro-1-[3-(4-methoxyphenyl)-5-(3-methylphenyl)-4,5-dihydro-1H-pyrazol-1-yl]ethan-1-one]
Second: O=C(CCl)Nc1ccc(Oc2cccc(Cl)c2)cc1 [6-C18, 2-chloro-N-[4-(3-chlorophenoxy)phenyl]acetamide]
The “% of control remaining” value of the first is higher: 99.3746% for the first, 55.0574% for the second.

Compared with CCN(Cc1ccc2c(c1)OCO2)C(=O)CCl [5-L07, N-[(1,3-dioxaindan-5-yl)methyl]-2-chloro-N-ethylacetamide], C=CC(=O)Nc1ccc2c(c1)CCO2 [1-O11, N-(2,3-dihydro-1-benzofuran-5-yl)prop-2-enamide] is lower in “% of control remaining” value: 98.8547% for the first, 88.4903% for the second.

First: CC(Cl)C(=O)Nc1ccc(F)c(F)c1 (stereo not shown) [6-P08, 2-chloro-N-(3,4-difluorophenyl)propanamide]
Second: CC(Cl)C(=O)Nc1ccc(SC(F)F)cc1 (stereo not shown) [4-L09, 2-chloro-N-{4-[(difluoromethyl)sulfanyl]phenyl}propanamide]
The “% of control remaining” value of the first is higher: 93.8857% for the first, 88.1604% for the second.

Compared with N#CC(=Cc1cccc(Cl)c1)C(=O)Nc1ccccc1C(F)(F)F [8-J13, 3-(3-chlorophenyl)-2-cyano-N-[2-(trifluoromethyl)phenyl]prop-2-enamide], N#CC(=Cc1ccc(Cl)c(Cl)c1)C(=O)NCc1ccccc1 [8-B07, N-benzyl-2-cyano-3-(3,4-dichlorophenyl)prop-2-enamide] is lower in “% of control remaining” value: 71.448% for the first, 66.6893% for the second.

Going from C=CC(=O)N1CCC(C(=O)N(C)CCn2cccn2)CC1 [2-J12, N-methyl-1-(prop-2-enoyl)-N-[2-(1H-pyrazol-1-yl)ethyl]piperidine-4-carboxamide] to C=CC(=O)N1CCC(F)CC1 [1-D14, 1-(4-fluoropiperidin-1-yl)prop-2-en-1-one], the “% of control remaining” value falls from 94.519% to 79.2444%.

Compared with CC(Cl)C(=O)NC(c1cc(Cl)ccc1Cl)C1CCOC1 (stereo not shown) [7-K21, 2-chloro-N-[(2,5-dichlorophenyl)(oxolan-3-yl)methyl]propanamide], CC(Cl)C(=O)NC(C)c1ccc2c(c1)CCCC2 (stereo not shown) [6-A07, 2-chloro-N-[1-(5,6,7,8-tetrahydronaphthalen-2-yl)ethyl]propanamide] is higher in “% of control remaining” value: 73.7486% for the first, 78.2633% for the second.

First: CC(Cl)C(=O)NC1CCN(c2ccccc2C(F)(F)F)C1 (stereo not shown) [7-C17, 2-chloro-N-{1-[2-(trifluoromethyl)phenyl]pyrrolidin-3-yl}propanamide]
Second: CC(Cl)C(=O)N1c2ccccc2NC(=O)C1(C)C (stereo not shown) [4-C08, 4-(2-chloropropanoyl)-3,3-dimethyl-1,2,3,4-tetrahydroquinoxalin-2-one]
The “% of control remaining” value of the first is lower: 55.6418% for the first, 91.7835% for the second.

Going from Cc1ccc(S(=O)(=O)N2CCCCC2)cc1NC(=O)CCl [4-L06, 2-chloro-N-[2-methyl-5-(piperidine-1-sulfonyl)phenyl]acetamide] to Cn1cc(S(=O)(=O)N2CCOCC2)cc1C(=O)NC(=O)CCl [4-P20, N-(2-chloroacetyl)-1-methyl-4-(morpholine-4-sulfonyl)-1H-pyrrole-2-carboxamide], the “% of control remaining” value rises from 100.927% to 108.001%.

First: Cc1ccc(C=C(C#N)C(=O)Nc2ccc(C(=O)O)cc2)o1 [8-C14, 4-[2-cyano-3-(5-methylfuran-2-yl)prop-2-enamido]benzoic acid]
Second: N#CC(=Cc1c(F)cccc1Cl)C(=O)Nc1ccc(C(=O)O)cc1 [9-P06, 4-[3-(2-chloro-6-fluorophenyl)-2-cyanoprop-2-enamido]benzoic acid]
The “% of control remaining” value of the first is lower: 75.119% for the first, 99.3202% for the second.

Compared with CC(Cl)C(=O)NCC1(C2CC2)CCC1 (stereo not shown) [7-A06, 2-chloro-N-[(1-cyclopropylcyclobutyl)methyl]propanamide], CC(Cl)C(=O)NC(=O)NC1CCS(=O)(=O)C1 (stereo not shown) [4-J13, 3-(2-chloropropanoyl)-1-(1,1-dioxo-1lambda6-thiolan-3-yl)urea] is higher in “% of control remaining” value: 82.4715% for the first, 97.4768% for the second.

Compared with O=C(CCl)Nc1oncc1-c1ccccc1 [6-I20, 2-chloro-N-(4-phenyl-1,2-oxazol-5-yl)acetamide], O=C(CCl)Nc1ccc2ccccc2c1 [4-B12, 2-chloro-N-(naphthalen-2-yl)acetamide] is higher in “% of control remaining” value: 95.5541% for the first, 102.135% for the second.

First: c1ccc(CSSCc2ccccc2)cc1 [10-O21, [(benzyldisulfanyl)methyl]benzene]
Second: N#CC(=Cc1cccc2nccn12)C(=O)Nc1ccccc1 [9-M05, 2-cyano-3-{imidazo[1,2-a]pyridin-5-yl}-N-phenylprop-2-enamide]
The “% of control remaining” value of the first is higher: 100.37% for the first, 91.9782% for the second.

Going from O=C(CCl)c1cc2c3c(c1)CC(=O)N3CCC2 [10-G16, 6-(2-chloroacetyl)-1-azatricyclo[6.3.1.0,4,12]dodeca-4(12),5,7-trien-2-one] to C=CC(=O)Nc1ccc2c(=O)onc(C)c2c1 [1-N12, N-(4-methyl-1-oxo-1H-2,3-benzoxazin-6-yl)prop-2-enamide], the “% of control remaining” value rises from 27.7421% to 81.4524%.

Compared with C=CC(=O)Nc1cc(NC(=O)c2ccc([N+](=O)[O-])o2)ccc1F [3-J04, N-[4-fluoro-3-(prop-2-enamido)phenyl]-5-nitrofuran-2-carboxamide], C=CC(=O)Nc1ccc(OC)c(COC)c1 [3-B06, N-[4-methoxy-3-(methoxymethyl)phenyl]prop-2-enamide] is higher in “% of control remaining” value: -0.1875% for the first, 110.439% for the second.

Going from CCc1ccccc1NC(=O)CN(C)C(=O)C(C)Cl (stereo not shown) [4-P05, 2-chloro-N-{[(2-ethylphenyl)carbamoyl]methyl}-N-methylpropanamide] to COc1ccc(OC)c(C(C)NC(=O)CCl)c1 (stereo not shown) [4-M19, 2-chloro-N-[1-(2,5-dimethoxyphenyl)ethyl]acetamide], the “% of control remaining” value falls from 120.078% to 102.48%.
